{"source": "the supplement of paper PMC6531468", "note": "The other results are listed elsewhere or left out. Values come from read counts of a selection and are noisy. Scores sum up all selected molecules that hold the word; the word was not tested alone."}
{"system": "IMP3 KH1-4", "sequence (chain, as listed by the source)": "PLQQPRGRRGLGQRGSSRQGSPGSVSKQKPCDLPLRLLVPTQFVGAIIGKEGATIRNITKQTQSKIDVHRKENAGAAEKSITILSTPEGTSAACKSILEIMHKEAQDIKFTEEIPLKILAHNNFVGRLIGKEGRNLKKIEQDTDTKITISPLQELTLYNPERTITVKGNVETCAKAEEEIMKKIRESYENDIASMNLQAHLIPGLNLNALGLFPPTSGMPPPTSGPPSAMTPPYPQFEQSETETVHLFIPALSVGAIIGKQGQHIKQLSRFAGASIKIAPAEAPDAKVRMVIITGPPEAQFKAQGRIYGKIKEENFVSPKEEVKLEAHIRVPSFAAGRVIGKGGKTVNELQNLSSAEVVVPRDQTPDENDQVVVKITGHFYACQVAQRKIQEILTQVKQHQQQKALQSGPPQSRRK", "assay": "6-mer SELEX enrichment z-score vs GST control; IMP3 is the RNA-binding protein IGF2BP3; higher = more enriched by binding", "details": "construct: KH1-4 (164-579); SELEX round: R4", "method": "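SELEX-seq with GST-tagged IMP3 KH1-4 (Pro164-Lys579) and an N40 RNA pool, round 4. 6-mer z-score of sequence-tag enrichment normalised to the corresponding GST SELEX round; RNA k-mers written as DNA (T for U).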"}
{"sequence": "AAATCG", "6-mer SELEX enrichment z-score": -1.04}
{"sequence": "ACTGGT", "6-mer SELEX enrichment z-score": -0.147}
{"sequence": "TAACCA", "6-mer SELEX enrichment z-score": -0.259}
{"sequence": "TCCTCC", "6-mer SELEX enrichment z-score": 0.579}
{"sequence": "TGCCGG", "6-mer SELEX enrichment z-score": -0.198}
{"sequence": "TAAGTG", "6-mer SELEX enrichment z-score": 0.238}
{"sequence": "GTGTAA", "6-mer SELEX enrichment z-score": -0.269}
{"sequence": "TCTAAT", "6-mer SELEX enrichment z-score": 0.529}
{"sequence": "ATGCGT", "6-mer SELEX enrichment z-score": -1.39}
{"sequence": "CCTAGT", "6-mer SELEX enrichment z-score": -0.361}
{"sequence": "ATTTGT", "6-mer SELEX enrichment z-score": 0.656}
{"sequence": "ACTCTG", "6-mer SELEX enrichment z-score": -0.47}
{"sequence": "CAGTAG", "6-mer SELEX enrichment z-score": -0.166}
{"sequence": "AAACGA", "6-mer SELEX enrichment z-score": -2.08}
{"sequence": "GTATCA", "6-mer SELEX enrichment z-score": -0.371}
{"sequence": "TAACTT", "6-mer SELEX enrichment z-score": 0.88}
{"sequence": "GCACTA", "6-mer SELEX enrichment z-score": 1.13}
{"sequence": "TGGGGT", "6-mer SELEX enrichment z-score": 0.36}
{"sequence": "GCGGAC", "6-mer SELEX enrichment z-score": -0.728}
{"sequence": "GAGTAC", "6-mer SELEX enrichment z-score": -0.634}
{"sequence": "CAGATT", "6-mer SELEX enrichment z-score": 0.807}
{"sequence": "GTCAGT", "6-mer SELEX enrichment z-score": 0.189}
{"sequence": "ACAGGA", "6-mer SELEX enrichment z-score": 1.44}
{"sequence": "AGCGTG", "6-mer SELEX enrichment z-score": -3.96}
{"sequence": "ACTGAT", "6-mer SELEX enrichment z-score": 0.945}
{"sequence": "ATGCAT", "6-mer SELEX enrichment z-score": 1.02}
{"sequence": "CACCTT", "6-mer SELEX enrichment z-score": -0.103}
{"sequence": "TGTTGA", "6-mer SELEX enrichment z-score": -0.292}
{"sequence": "AATCAT", "6-mer SELEX enrichment z-score": 1.55}
{"sequence": "TCCTCG", "6-mer SELEX enrichment z-score": -0.433}
{"sequence": "CCGAGT", "6-mer SELEX enrichment z-score": -1.98}
{"sequence": "GTTTGC", "6-mer SELEX enrichment z-score": -0.191}
{"sequence": "GCCTCA", "6-mer SELEX enrichment z-score": -0.89}
{"sequence": "ACTGCT", "6-mer SELEX enrichment z-score": 0.537}
{"sequence": "CATACT", "6-mer SELEX enrichment z-score": 0.872}
{"sequence": "TCCGAG", "6-mer SELEX enrichment z-score": -1.77}
{"sequence": "ATAAGA", "6-mer SELEX enrichment z-score": 1.39}
{"sequence": "TGAGTA", "6-mer SELEX enrichment z-score": -0.27}
{"sequence": "GGGCGT", "6-mer SELEX enrichment z-score": -1.74}
{"sequence": "CCCTTC", "6-mer SELEX enrichment z-score": -0.105}
